Reference: PubChem BioAssay (Tox21)
Values joined by “and” are separate entries in the source; they are usually repeats but may differ in a detail not shown here. Identical values can stand only once. Inconclusive results, whose numbers are uncertain, are shown with a selection of clear calls. For some assays here: Where the call is inconclusive, the potency comes from a doubtful curve fit. Active and inactive are the calls of the source. Unless noted, calls follow the shape of the dose curve; as a rule, active = well fitted curve in the direction sought with a large enough effect in the repeat runs; inconclusive = weak or mixed curves; inactive = no such curve, though single readings can be large; an effect the other way counts as inactive or inconclusive.

Assay: qHTS assay to identify small molecule agonists of the estrogen receptor beta (ER-beta) signaling pathway - cell viability counter screen (AID 1259380); also: nearly all actives have a fitted effect of over 30% in size; also: potency is read from the fitted curve at half-maximal effect
Settings: ER-beta-bla HEK293T viability, CellTiter-Glo luminescence, 16 h; series mostly up to 92.4 µM
Method in brief: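 In this qHTS counter screen, HEK293T cells carrying an ER-beta/UAS beta-lactamase reporter, grown in 2% charcoal-stripped FBS, received compound for 16 hr; ATP-based CellTiter-Glo luminescence was then read after 30 min at room temperature.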
Tags tell the direction and shape of the fitted curve.

SMILES	Potency
CN[C@@H]1[C@@H](O)[C@@H](O[C@@H]2[C@H](O)[C@H](O[C@H]3OC(CN)=CC[C@H]3N)[C@@H](N)C[C@H]2N)OCC1(C)O (stereo partly specified)	inconclusive: 33.5 µM [rising, partial curve, poor fit]
CCCCN(CCCC)C(=O)N(CCCC)CCCC	inconclusive: 77 µM [cytotoxic, partial curve, poor fit]
C#C[C@]1(O)CC[C@H]2[C@@H]3CCc4cc(OC)ccc4[C@H]3CC[C@@]21C	active: 21.7 µM and inconclusive: 8.41 µM [cytotoxic, full curve]
Cc1nc(C)nc(N2C[C@@H](C)N(c3ccnc([C@@H](C)O)n3)[C@@H](C)C2)n1	inconclusive: 7.5 µM [cytotoxic, single point]
C[C@H](CN1CCCC1)C(=O)c1ccc(C(F)(F)F)cc1	inconclusive: 26.6 µM [cytotoxic, partial curve, poor fit]
CCc1c(C(=O)NN2CCCCC2)nn(-c2ccc(Cl)cc2Cl)c1-c1ccc(Br)cc1	inconclusive: 5.45 µM [cytotoxic, full curve]
O=Cc1ccc(F)c(Br)c1	inconclusive: 68.6 µM [rising, partial curve, poor fit]
NNC(=O)OCc1ccccc1	inactive
NC(CO)(CO)CO	inactive
O=C(O)c1ccccc1-n1cc(C(=O)O)c(=O)c2cc(Nc3c(F)cc(F)cc3Cl)c(Cl)cc21	inactive
Cc1nc2n(c(=O)c1CCN1CCC(c3noc4cc(F)ccc34)CC1)CCCC2	inconclusive: 29.8 µM [cytotoxic, partial curve]
C/C=C(\C)C(=O)OCc1ccccc1	inactive
CC(C)(C)OCC1CO1 (stereo unspecified)	inactive
COC(=O)CC(=O)C(C)(C)C	inconclusive: 15.4 µM [cytotoxic, partial curve]
COC(=O)[C@@H](N)Cc1ccc(O)c(O)c1	inactive
Nc1ccc(C(=O)OCC(O)CO)cc1 (stereo unspecified)	inactive
CCCCCCCCCCCCN1CCOCC1	inconclusive: 2.43 µM [cytotoxic, full curve, poor fit]
CCOC(=O)COc1ccc(C)cc1	inactive
Cc1ccc2ccc3cccc4ccc1c2c34	active: 24.3 µM
NC1CCCCC1N (stereo unspecified)	inactive
CN(C)CCN(Cc1ccccc1)c1ccccn1	inconclusive: 37.6 µM [cytotoxic, partial curve, poor fit]
CC(C)(O)c1ccccc1CC[C@@H](SCC1(CC(=O)O)CC1)c1cccc(/C=C/c2ccc3ccc(Cl)cc3n2)c1	inconclusive: 33.5 µM [cytotoxic, single point]
O=C(O)Cc1cccc2ccccc12	inconclusive: 43.3 µM [cytotoxic, partial curve]
COc1ccc(Br)c(C)c1	inactive
Cc1occc1S	inconclusive: 77 µM [cytotoxic, single point]
CCc1ccc(O)c(C(C)(C)C)c1	inconclusive: 77 µM [cytotoxic, single point]
COC(C)COC(C)COC(C)CO (stereo unspecified)	inconclusive: 27.3 µM [rising, single point]

Assay: qHTS assay to identify small molecule antagonists of the estrogen receptor beta (ER-beta) signaling pathway - cell viability counter screen (AID 1259382); also: nearly all actives have a fitted effect of over 55% in size; also: potency is read from the fitted curve at half-maximal effect
Settings: ER-beta-UAS-bla HEK293T viability, CellTiter-Glo luminescence, 16 h; series mostly up to 92.4 µM
Method in brief: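 HEK293T ER-beta-UAS-bla, 2% charcoal-stripped FBS; compounds + 1nM E2 16 hr 37C; CellTiter-Glo luminescence, 30 min RT.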

SMILES	Potency
Nc1cccc2c(=O)[nH][nH]c(=O)c12	inconclusive: 17.3 µM [cytotoxic, partial curve]
C#C[C@]1(O)CC[C@H]2[C@@H]3CCc4cc(OC)ccc4[C@H]3CC[C@@]21C	inconclusive: 24.3 µM [cytotoxic, partial curve] and inconclusive: 13.3 µM [cytotoxic, partial curve, poor fit]
CCC(CC)C(=O)O	inactive
CCCCCCCCCCCCCCCC(=O)OC[C@H](O)[C@H]1OC(=O)C(O)=C1O	inconclusive: 38.6 µM [cytotoxic, partial curve]
CCc1c(C(=O)NN2CCCCC2)nn(-c2ccc(Cl)cc2Cl)c1-c1ccc(Br)cc1	inconclusive: 4.33 µM [cytotoxic, full curve, poor fit]
COC(=O)CC(=O)C(C)(C)C	inconclusive: 27.3 µM [cytotoxic, full curve]
O=[N+]([O-])c1ccc2nc[nH]c2c1	inactive
CC1(C)C(=O)N(Cl)C(=O)N1Br	inactive
O=CCCCC=O	inactive
CCO[C@@H]1O[C@H](C(COCc2ccccc2)OCc2ccccc2)[C@H](OCc2ccccc2)[C@H]1O (stereo partly specified)	inactive

Assay: qHTS assay to identify small molecule agonists or antagonists of the thyroid stimulating hormone receptor (TSHR) signaling pathway - wild type cell line counter screen (AID 1259384; calls by dose curve)
Settings: HEK293 wild type, cAMP HTRF counter-screen; series mostly up to 92.4 µM
Method in brief: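 Counter screen in untransfected Hek293: compounds (15-point titration, triplicate) plus phosphodiesterase inhibitor Ro20-1724 added after 18 h plating; 30 min RT. Intracellular cAMP via competitive d2/cryptate immunoassay, 1 h incubation.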

SMILES	Potency
Cc1cc2c(cc1S(N)(=O)=O)S(=O)(=O)CCC2	inactive
CC(C)(C)N(CCO)CCO	inactive
O=[N+]([O-])c1ccc2nc[nH]c2c1	inactive
CCCCC(CC)C(=O)O (stereo unspecified)	inactive
